# Data from the supplement of paper PMC3724861.
# The other results are listed elsewhere or left out.
# Test system: T1, Caupolican (Caup) homeodomain DNA-binding domain
# T1 sequence: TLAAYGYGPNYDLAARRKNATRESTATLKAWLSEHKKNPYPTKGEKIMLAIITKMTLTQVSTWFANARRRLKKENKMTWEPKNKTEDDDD
# Assay: PBM E-score (8-mer, recovered from the published 9-mer minima) (E-score (dimensionless, -0.5 to 0.5)); Drosophila protein; higher = stronger relative binding preference, active = 0.31 or more
# Summary of the method: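 Caup's homeodomain DNA-binding domain (residues 214-303) was produced by in vitro transcription and translation and applied at 100 nM to custom-designed protein binding microarrays. Each value is an enrichment score giving relative binding preference for a short DNA word; higher means stronger. Published 9-mer scores were the minimum of their two constituent 8-mer scores, and the 8-mer values were recovered from those minima. A cutoff of 0.31 marks candidate binding sequences.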
row,Sequence,PBM E-score
1,AATATCGC,inactive: 0.0218
2,ATTGATCA,inactive: 0.137
3,AGTGACCC,inactive: -0.123
4,AGATATAT,≥ 0.172
5,CCGCCACA,inactive: -0.0608
6,CTTTTTCC,inactive: -0.0824
7,ACACTCTC,inactive: 0.13
8,AGCGAAAC,inactive: 0.0322
9,GCATCTCC,inactive: -0.185
10,GGTAGAAA,inactive: -0.107
11,CGCCAACC,inactive: -0.228
12,AACACGTC,inactive: 0.299
13,AGGGTATC,inactive: -0.045
14,AACAACCT,inactive: 0.243
15,CAAACTAA,inactive: 0.132
16,AAGGATTC,inactive: -0.0347
17,GCTCAGCC,inactive: -0.128
18,GGGACCAA,inactive: -0.126
19,ACTTGCCC,inactive: -0.0451
20,AATATACT,inactive: 0.155
21,CCTTACAA,inactive: 0.156
22,AGTAGTAG,inactive: 0.111
23,GAGGGGCC,inactive: -0.183
24,CTCCGCCA,inactive: -0.244
25,TATGGTGA,inactive: 0.00674

row,Sequence,PBM E-score
1,CGATCCCG,inactive: -0.131
2,AATCTATG,inactive: 0.108
3,GATTTGAC,inactive: 0.0669
4,CCAGCTGC,inactive: -0.255
5,CTGTCGGC,inactive: -0.141
6,AGCGTGGC,inactive: -0.21
7,ACTTCGCT,≥ -0.0099
8,CATAGTTA,inactive: 0.169
9,CGAAACCC,inactive: -0.0886
10,ACACGCTG,inactive: 0.229
11,ATAAGCTC,inactive: -0.107
12,TACAACGA,inactive: 0.267
13,CAATTTGA,inactive: 0.0278
14,CGGAGGTC,inactive: -0.162
15,CCCTGACA,inactive: 0.133
16,CCCCGCGA,inactive: -0.22
17,ATAGCCCA,inactive: -0.0431
18,GAGGACAA,inactive: 0.0656
19,CAAGTGTA,inactive: 0.244
20,ACAATCCC,inactive: -0.0374
21,AAGTTGGT,inactive: 0.0109
22,ACAAGGAA,inactive: 0.247
23,CTACTATA,inactive: 0.0895
24,GCGCGCAA,inactive: -0.126
25,GGGGGTTA,inactive: -0.214

row,Sequence,PBM E-score
1,CGCCGTCC,inactive: -0.205
2,CCGGGATA,inactive: -0.0468
3,GTACCGGA,inactive: 0.0226
4,AGTACTCA,inactive: 0.0849
5,ACTAGAGA,inactive: -0.0382
6,CCGGTCTC,inactive: -0.109
7,AGCATGCG,inactive: -0.0296
8,CGGGCGAC,inactive: -0.187
9,AGTCGTGA,inactive: 0.0171
10,CTATGTGC,inactive: 0.0747
11,AGCAGAAC,inactive: 0.0217
12,CGGGAATA,inactive: 0.0503
13,CTTGGACC,inactive: -0.0867
14,GGGGTTAC,inactive: -0.13
15,ACGTTGGC,inactive: -0.0739
16,CGTATTGC,inactive: -0.0432
17,GGCGACCC,inactive: -0.258
18,GACCATAC,inactive: 0.00514
19,AGTTAAGA,inactive: 0.131
20,CGCTGACC,inactive: -0.175
21,AAGTTCAG,≥ 0.0717
22,AAACGCAG,inactive: -0.0755
23,GACTGGTA,inactive: 0.109
24,AGCACTTG,inactive: -0.0253
25,CTAGCACC,inactive: -0.0146

row,Sequence,PBM E-score
1,ACCTTCCC,inactive: -0.167
2,CCACGGCA,inactive: -0.142
3,AGTCATTG,inactive: 0.121
4,AGTGTTAG,inactive: 0.185
5,TCAGGCCA,≥ -0.0404
6,ATACCTTA,inactive: 0.06
7,TAAGGCAA,inactive: 0.014
8,CCATGTAA,active: 0.404
9,ACTCTCAT,≥ 0.0596
10,AGATACCA,≥ 0.123
11,CCGAACTC,inactive: -0.125
12,AGTGCAGG,inactive: -0.0932
13,ACAGGGAG,inactive: -0.115
14,GGCTGTCA,inactive: 0.0147
15,CCGTTGCC,inactive: -0.134
16,CCCGGCGC,inactive: -0.315
17,ACTGAAGA,inactive: 0.0217
18,AGGGGGAG,inactive: -0.354
19,AGCCGTTG,inactive: 0.0406
20,AGAACCGG,inactive: -0.0482
21,ATCCCCAG,inactive: -0.0913
22,ACGCCTCC,inactive: -0.175
23,AAATCCTA,inactive: 0.0973
24,CACCGAAA,inactive: 0.114
25,ATCTGCGG,inactive: -0.116

row,Sequence,PBM E-score
1,ACCAATTG,inactive: 0.0368
2,CTCACAGC,inactive: -0.124
3,GCGCCTAA,inactive: -0.114
4,ACTAACCA,inactive: 0.169
5,CATAGGAG,inactive: 0.101
6,ACCCGACG,inactive: -0.229
7,AGAGATTA,inactive: 0.06
8,GATCCGAC,inactive: -0.0368
9,ACTCGGCT,inactive: -0.162
10,AGTCCATA,inactive: 0.0813
11,AATCTTAC,inactive: 0.124
12,CGGCAGCC,inactive: -0.2
13,GCAGACCC,inactive: -0.251
14,CGTATTCC,inactive: 0.0379
15,CATGGTGG,inactive: 0.0166
16,AACTCGGA,inactive: -0.00245
17,AGACGTCA,inactive: -0.099
18,AAGCACAT,inactive: 0.0518
19,CTTTCCAA,inactive: -0.0212
20,AATCGTGT,active: 0.324
21,AAGATGTC,inactive: 0.244
22,AGTCTTAC,inactive: 0.0905
23,ACGTCCGA,inactive: -0.012
24,AGCTTGCA,inactive: -0.0141
25,AAGTTTGA,inactive: -0.0194

row,Sequence,PBM E-score
1,CACGAGCC,inactive: -0.0732
2,TCACACAA,inactive: 0.193
3,GAATCTGA,inactive: 0.0979
4,AACGCACG,inactive: -0.032
5,ACAATTTA,inactive: 0.199
6,CTTCTGCA,inactive: -0.104
7,GCGAACGA,inactive: 0.00689
8,ACACCCTC,inactive: -0.0435
9,ATGCGACA,inactive: 0.25
10,GGCCGGCC,inactive: -0.338
11,AATCCCGG,inactive: -0.024
12,GGCAGCAA,inactive: -0.0662
13,CTTGCGGC,inactive: -0.228
14,CTCCAGGC,inactive: -0.216
15,ATTATTCG,inactive: 0.138
16,CGTAATAC,inactive: 0.16
17,CCGCTGGA,inactive: -0.183
18,ACCCCGTG,inactive: -0.0583
19,GTAAGGAA,inactive: 0.0866
20,CGAGCGAG,inactive: 0.00691
21,TTAAAAAA,inactive: 0.0678
22,GTAGCATA,inactive: 0.143
23,AATTTAAC,inactive: 0.155
24,CACACTAC,inactive: 0.162
25,ATCCACGG,inactive: -0.0445

row,Sequence,PBM E-score
1,GTCCCGTA,inactive: 0.0198
2,CCGTATCC,inactive: -0.0823
3,CATGTGCC,inactive: 0.166
4,GCGTAACA,inactive: 0.221
5,AATTTGCA,inactive: -0.0111
6,GTCAAACA,inactive: 0.253
7,CCCATGGC,inactive: -0.258
8,CTCCTTCA,inactive: -0.179
9,CAGGGGCA,inactive: -0.0811
10,AGGGATAT,inactive: -0.00275
11,ATAAACAA,inactive: 0.254
12,CTCATGAA,inactive: 0.0374
13,AGTTTGTG,inactive: 0.0508
14,AGGTTGAC,inactive: 0.0115
15,GTACATTA,active: 0.322
16,AAGGATTA,inactive: 0.0924
17,CTAGTTAC,inactive: 0.103
18,AACTTGCG,inactive: -0.0904
19,ATCAGACA,inactive: 0.215
20,CCGATCCA,inactive: -0.0439
21,AATCGGCC,inactive: -0.163
22,GGTGATTA,inactive: 0.0603
23,AACGGGCT,inactive: -0.179
24,ACCCTCCA,inactive: -0.157
25,CATCAGGG,inactive: -0.1

row,Sequence,PBM E-score
1,AGCAACCG,inactive: -0.0428
2,GGCCCCAC,inactive: -0.259
3,CTGACTTC,inactive: -0.0831
4,CACGCTGG,inactive: -0.0853
5,CAAGTACA,active: 0.342
6,AAAGTTTC,inactive: 0.0415
7,GGCAATGA,inactive: 0.00568
8,CAGGTGAG,inactive: -0.128
9,GAGTCGCA,inactive: -0.0749
10,AAGGCATG,inactive: 0.0377
11,AGGCGTAA,inactive: -0.0182
12,CGCATACC,inactive: 0.0193
13,ACTAGCAT,inactive: 0.121
14,CAGACGGA,inactive: -0.0614
15,ACATATTC,active: 0.329
16,AAACCTGT,inactive: 0.206
17,AACGAAGC,inactive: -0.0846
18,CGACACGA,inactive: 0.286
19,CTCAATTA,inactive: 0.0935
20,CCTTCTCC,inactive: -0.187
21,CCAACGTC,inactive: -0.1
22,ATCCTCAT,inactive: -0.0316
23,GGTCCGCA,inactive: -0.174
24,AGGCAGTC,inactive: -0.167
25,CTAATAAG,inactive: 0.0971

row,Sequence,PBM E-score
1,ACCTGCAT,inactive: -0.0357
2,GTAATGCA,inactive: 0.133
3,TCCCAAGA,inactive: -0.0874
4,ACCTACAC,inactive: 0.186
5,GACCGGCA,inactive: -0.111
6,GTGATGAA,inactive: 0.0845
7,ATGTCTTA,inactive: 0.284
8,CCAGCTAA,inactive: -0.0883
9,ACACGGGT,inactive: 0.282
10,ATTCAGTA,inactive: 0.122
11,GTAACGCA,inactive: 0.0272
12,CCAGAGTC,inactive: -0.051
13,ACAAACAT,active: 0.368
14,AAAAGCTG,inactive: -0.0792
15,AATAATGT,inactive: 0.215
16,CACATGAC,inactive: 0.242
17,CGAACGGA,≥ 0.0258
18,CGGACAAC,inactive: 0.235
19,CCCGAGCA,inactive: -0.124
20,ATAGTGAA,inactive: 0.143
21,GAGTACAA,inactive: 0.262
22,ACACGCCC,inactive: 0.0902
23,GGAATCAA,inactive: -0.0161
24,GACATGGC,active: 0.314
